Assay results taken from PubChem BioAssay AID1963576 (National Center for Advancing Translational Sciences (NCATS), 2024).
Hit rate of the full screen: of about 46,000 compounds, about 60 (0.1%) were called active. Another 3% or so got no clear call; they are omitted. Calls follow the shape of the dose curve; as a rule, active = well fitted inhibition curve with a large enough effect; inconclusive = small, poorly fitted or top-dose-only effect; inactive = no such curve, though single readings can be large or run the other way. Some of the results follow.

Assay: Primary qHTS assay for Inhibitors of ovarian cancer metastasis using an organotypic tumor microenvironment (TME) model. Also: nearly all actives have a fitted effect of over 65% in size.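 As to activity change, negative = inhibition: plate controls were DMSO wells for no effect and tomatine positive control wells for full effect.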
Details: SKOV3ip1-GFP adhesion/invasion on 3D omental model, fluorescence; series mostly up to 45.8 µM; activity change, negative = inhibition: at the top concentration
How it was run: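 Primary human omental fibroblast/mesothelial 3D culture pre-formed 48 h. SKOV3ip1-GFP cells added with compounds (0.36-46 umol/L), incubated 2 h RT/16 h 37 C, fixed; GFP cells quantified at 488/509 nm.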

Row | SMILES | outcome | activity change, negative = inhibition
1 | Cc1ccc(NC(=O)CSc2nnc(N)s2)c(C)c1 | inactive | –
2 | COCCNc1ncnc2c1c(-c1ccccc1)cn2-c1cccc(Cl)c1 | – | inactive: -0.178%
3 | CC(C)C(=O)OCc1cc(=O)n2nc(C3CCCCC3)sc2n1 | – | inactive: 5.41%
4 | Cc1ccc(NC(=O)C2CCCN2S(=O)(=O)c2cccc3cccnc23)cc1C (stereo not given) | – | inactive: -3.6%
5 | CCN(CC)c1ccc(C2C(C(N)=O)=C(C)Nc3ncnn32)cc1 (stereo not given) | – | inactive: 47.7%
6 | CCCCNC(=O)CCc1c(C)nc2c(c(C)nn2-c2ccccc2)c1C | – | inactive: -24.1%
7 | Cn1ccnc1SCC(=O)Nc1cc(Cl)ccc1Cl | inactive | –
8 | Fc1ccc(CNc2nc(-c3ccccc3)cc(C(F)(F)F)n2)cc1 | inactive | –
9 | CCC(C(=O)Nc1ccc(C(C)=O)cc1)n1c(C)c2cnn(-c3ccccc3)c(=O)c2c1C (stereo not given) | – | inactive: -11.5%
10 | Cn1c(=O)c2c(nc(SCC(=O)Nc3ccc(F)cc3)n2Cc2ccccc2)n(C)c1=O | – | inactive: 0.317%
11 | COc1ccc(NS(=O)(=O)c2ccc3[nH]c4c(c3c2)CCCCCC4)cc1 | – | inactive: -7.66%
12 | Cc1cccc(CS(=O)(=O)c2ncc(Cl)c(C(=O)NCc3ccccc3)n2)c1 | – | inactive: -12.4%
13 | Cc1ccccc1CN1CCCN(CC(=O)Nc2c(C)cccc2C)S1(=O)=O | inactive | –
14 | COc1ccccc1N1CCN(C(CNC(=O)C(=O)NCCc2ccccc2)c2cccnc2)CC1 (stereo not given) | – | inactive: 0.887%
15 | O=C(NCCc1ccccc1)c1cc(Sc2ccc(F)cc2F)nc2ccccc12 | – | inactive: 9.98%
16 | COc1cccc(OCc2nc3ccccc3n2CCOc2cccc(C)c2)c1 | – | inactive: -8.18%
17 | COc1ccc(-c2onc(C)c2C)cc1S(=O)(=O)NC1CCC(C)CC1 (stereo not given) | – | inactive: -5.15%
18 | Cc1ccc(OCC(=O)Nc2ccc(C(=O)OCc3cc(=O)n4c(C)csc4n3)cc2)cc1 | – | inactive: -1.39%
19 | O=C(Nc1ccc(F)cc1F)c1ccc(-n2cnnc2)cc1 | – | inactive: -8.27%
20 | O=C(NCC12CC3CC(CC(C3)C1)C2)c1cc2nc(-c3ccc(F)cc3)cc(C(F)(F)F)n2n1 | – | inactive: 1.84%
21 | CCc1ccc(C2c3c(oc4ccc(C)cc4c3=O)C(=O)N2c2nc(C)c(C)s2)cc1 (stereo not given) | – | inactive: -2.2%
22 | COc1ccc(-c2cc(C(F)(F)F)nc(SCCC(=O)Nc3c(C)cccc3C)n2)cc1 | inactive | –
23 | COc1cccc(-c2ccc3c(N)c(C(=O)Nc4ccc(C)c(F)c4)sc3n2)c1 | – | inactive: -35.9%
24 | COc1cc(NC(=O)Cn2cc(S(=O)(=O)c3ccccc3)c(=O)c3ccccc32)cc(OC)c1 | inactive | –

Row | SMILES | outcome | activity change, negative = inhibition
25 | CNC(=O)COc1ccc(Nc2nnc(-c3ccc(C)c(S(=O)(=O)NC(C)(C)C)c3)c3ccccc23)cc1 | – | inactive: 1.6%
26 | CCOc1cc(C2c3c(-c4ccccc4O)n[nH]c3C(=O)N2CCc2ccccc2)ccc1O (stereo not given) | – | inactive: -10.1%
27 | Cc1ccc(-n2c(=O)c3oc4ccccc4c3n(CC(=O)Nc3ccccc3)c2=O)cc1C | – | inactive: -4.64%
28 | COc1ccc(N2CCN(C(=O)Nc3cccc(C(F)(F)F)c3)CC2)cc1 | – | inactive: -0.841%
29 | CCc1ccccc1NC(=O)Cc1c(C(=O)O)[nH]c2ccc(Cl)cc12 | inactive | –
30 | Cc1ccc(Cn2c(CNC(=O)c3ccccc3Br)nc3cccnc32)cc1 | inactive | –
31 | CC(C)CNC(=O)C1=CC(c2ccc3c(c2)OCO3)=NS(=O)(=O)N1C | – | inactive: 8.73%
32 | Cc1cc(-n2c(C)nc3ccccc3c2=O)ccc1NC(=O)c1cccc([N+](=O)[O-])c1 | – | inactive: -4.29%
33 | O=C(NCCc1ccccc1)C(=O)Nc1cccc(Br)c1 | inactive | –
34 | CCOC(=O)c1c(NC(=O)c2cc(-c3ccc(OC)cc3)on2)sc(C)c1C | – | inactive: -1%
35 | Oc1c(C(c2ccccc2)N2CCN(c3ccccc3)CC2)sc2nc(-c3ccco3)nn12 (stereo not given) | – | inactive: -1.89%
36 | Cc1ccc(C(=O)COC(=O)CCC(=O)Nc2ccc(Oc3ccccc3)cc2)cc1C | – | inactive: 1.1%
37 | C=CC1=C(C(=O)O)N2C(=O)[C@@H](NC(=O)C(=NO)c3csc(N)n3)[C@H]2SC1 | – | inactive: 13.7%
38 | O=C(CSc1nc(=O)[nH]c2c1CCC2)NCc1ccccc1 | – | inactive: 3.36%
39 | Cn1c(CCNC(=O)c2ccco2)nc2cc(NC(=O)COc3ccc(Cl)cc3)ccc21 | – | inactive: -2%
40 | CCOc1ccccc1NS(=O)(=O)c1cnc(N)nc1 | – | inactive: -0.518%
41 | Cc1ccccc1N1CCN(S(=O)(=O)c2nnc(NC(=O)c3ccc(Cl)cc3)s2)CC1 | – | inactive: 1.38%
42 | O=C(Cn1c(=O)nc(-c2ccccc2)c2ccccc21)NCCCc1ccccc1 | – | inactive: 2.83%
43 | COc1ccc(CCNC(=O)CS(=O)Cc2nc(-c3ccc(C)cc3)oc2C)c(OC)c1 (stereo not given) | – | inactive: -6.61%
44 | COc1ccc(CCNC(=O)C(=O)NCC(c2ccco2)S(=O)(=O)c2ccccc2)cc1OC (stereo not given) | inactive | –
45 | CCOc1ccc(NC(=O)CSc2nnc(-c3ccc(C)cc3)c(-c3ccc(C)cc3)n2)cc1 | – | inactive: -12.4%
46 | Cc1oc2ncn(CC(C)C)c(=O)c2c1C(=O)NCCCN(Cc1ccccc1)C(C)C | – | inactive: 4.78%
47 | O=C(NCCCc1nc2ccccc2n1Cc1ccc(Cl)cc1)c1ccco1 | inactive | –
48 | O=C(Cn1cc(S(=O)(=O)Cc2ccc(F)cc2)c2ccccc21)NCc1ccccc1Cl | – | inactive: 0.29%

Row | SMILES | outcome | activity change, negative = inhibition
49 | Cc1ccccc1CSc1nnc2[nH]c(=O)cc(C)n12 | – | inactive: -2.15%
50 | O=C(NC1CC(=O)N(c2ccc(Cl)cc2)C1)c1ccc(S(=O)(=O)N2CCCC2)cc1 (stereo not given) | – | inactive: -7.31%
51 | COc1ccc(-n2c(SCc3ccccc3F)nc3c([nH]c4ccccc43)c2=O)cc1 | inactive | –
52 | CCc1cccc(NCc2ccccc2-c2nnc(-c3ccccc3Cl)o2)c1 | – | inactive: 5.24%
53 | CCCC12CN3CC(C)(CN(C1)C3c1cn(C)c3ccccc13)C2=O (stereo not given) | – | inactive: 0.159%
54 | NCCCC(O)(P(=O)(O)O)P(=O)(O)O | – | inactive: 12.8%
55 | CSc1nn(Cc2ccc(Br)cc2)c(N(C(C)=O)C(C)=O)c1S(=O)(=O)c1ccccc1 | inactive | –
56 | CC(=O)c1ccc(NC(=O)C2CCC(CNS(=O)(=O)c3ccc4c(c3)CCCC(=O)N4)CC2)cc1 (stereo not given) | inactive | –
57 | CCn1c(CN2CCOCC2)nc2cc(NC(=O)c3cc(OC)c(OC)c(OC)c3)ccc21 | – | inactive: 6.9%
58 | CCc1ccccc1NC(=O)C1CCCN(c2nnc(-n3c(C)ccc3C)s2)C1 (stereo not given) | – | inactive: 0.146%
59 | CC(=O)c1ccc(NC(=O)c2cc(-c3ccc(Cl)c(Cl)c3)on2)cc1 | – | inactive: 9.86%
60 | CCCCSCCCNC(=O)C1CCC(CNS(=O)(=O)c2ccccc2)CC1 (stereo not given) | – | inactive: 1.62%
61 | CC1CCN(C(=O)Cn2ncc3c4ccccc4n(Cc4ccc(Cl)cc4)c3c2=O)CC1 | – | inactive: 2.87%
62 | COc1ccc(-c2cc(C(=O)NCc3ccccc3)c3c(-c4ccccc4)[nH]nc3n2)cc1 | – | inactive: -3.28%
63 | COc1ccccc1N1CCN(C(=O)Cc2c(C(=O)O)c(C)cn2C)CC1 | – | inactive: 0.0817%
64 | O=C(Nc1ccc(F)cc1F)c1ccc2c(=O)n3c(nc2c1)CCCCC3 | – | inactive: -2.6%
65 | COc1ccccc1-c1cc(C(=O)Nc2cc(Cl)ccc2O)no1 | – | inactive: 1.88%
66 | CCOc1ccc(CCNC(=O)c2ccc3nc(CC)c(CC)nc3c2)cc1 | inactive | –
67 | COc1cccc(-n2c(=O)c3sc4ccccc4c3n(CC(=O)Nc3cccc(Cl)c3)c2=O)c1 | – | inactive: -3.03%
68 | Fc1ccc(CNc2nc3ccc(Cl)cc3n3nnnc23)cc1 | – | inactive: 3.65%
69 | O=S(=O)(Nc1cccc(-c2ccc(N3CCCCC3)nn2)c1)c1ccc(Cl)s1 | – | inactive: -5.12%
70 | CCOc1ccc(CNC(=O)c2cnc3sc(N4CCC(C)CC4)nn3c2=O)cc1OC | inactive | –
71 | CCOc1ccc(OCC(=O)Nc2c(C(=O)Nc3ccc(C)cc3)oc3ccccc23)cc1 | – | inactive: -0.527%
72 | Cc1c(C(=O)N(C)c2cccc(C(F)(F)F)c2)sc2nc3n(c(=O)c12)CCCCC3 | – | inactive: 1.75%

Row | SMILES | outcome | activity change, negative = inhibition
73 | C=Cc1ccc(Cn2c(=O)n(-c3cccc(C)c3)c(=O)c3c2c2cc(C)ccc2n3C)cc1 | – | inactive: -3.83%
74 | O=c1[nH]c(=O)n([C@H]2C[C@@H](O)[C@@H](CO)O2)cc1C=CBr | – | inactive: -8.04%
75 | CCSc1ncc(Cl)c(C(=O)N2CCN(c3ccc(OC)cc3)CC2)n1 | – | inactive: 2.24%
76 | COC(=O)N[C@H](C(=O)N[C@@H](Cc1ccccc1)[C@@H](O)CN(Cc1ccc(-c2ccccn2)cc1)NC(=O)[C@@H](NC(=O)OC)C(C)(C)C)C(C)(C)C | – | inactive: 2.71%
77 | CCN(CC)c1ccc(NC(=O)C2COc3ccc(OC)cc3C2)c(C)c1 (stereo not given) | – | inactive: -7.53%
78 | Cc1ccc(S(=O)(=O)c2c(C)nn(-c3ccccc3)c2OC(=O)c2ccccc2F)cc1 | inactive | –
79 | CCN(CC)CCCNC(=O)c1ccc2nc(CCc3ccccc3)oc2c1 | – | inactive: -1.39%
80 | O=S(=O)(c1cccc(Cl)c1)c1nnn2c1nc(NC1CCCCCC1)c1sccc12 | – | inactive: 5.18%
81 | O=C(Nc1ccc2c(c1)N(C1CCCC1)C(=O)c1ccccc1S2)c1ccc(F)cc1 | – | inactive: -1.27%
82 | CC(C)(C)OC(=O)N1CCC(c2c(C(=O)NCc3ccco3)cnn2-c2ccc(F)cc2)CC1 | – | inactive: -3.47%
83 | Cc1ccc(-n2ncc(C(=O)N3CCN(Cc4ccccc4)CC3)c2C2CCN(C(=O)OC(C)(C)C)CC2)c(C)c1 | – | inactive: 2.77%
84 | CCC(=O)Oc1ccc(-c2nc3ccccc3c(=O)o2)cc1 | inactive | –
85 | CCN(c1ccc(Cl)cc1)S(=O)(=O)c1nnc(NC(=O)C(C)C)s1 | inactive | –
86 | CCOC(=O)c1ccccc1NC(=O)Cn1c(=O)n(Cc2ccccc2)c(=O)c2c(C)c(C)sc21 | – | inactive: -0.592%
87 | CN(C)c1ccc(C(CNS(=O)(=O)c2ccc(Br)cc2)N2CCOCC2)cc1 (stereo not given) | – | inactive: 0.645%
88 | O=c1c2sc3ccccc3c2n(Cc2ccccc2F)c(=O)n1CCc1ccccc1 | – | inactive: -6.46%
89 | COc1ccc(-c2nnc(SCC(=O)Nc3ccc(F)cc3)s2)cc1 | – | inactive: 7.09%
90 | CN(C)c1ccc(NC(=O)Cn2c(SCc3ccccc3F)nc3cccnc32)cc1 | – | inactive: 16.8%
91 | Cc1ccc(C)c(S(=O)(=O)c2nnn3c2nc(NCc2ccc4c(c2)OCO4)c2sccc23)c1 | – | inactive: 0.468%
92 | COC(=O)Nc1ccc(-c2nc(N3CCOCC3)c3cnn(C4CCN(C(=O)OC)CC4)c3n2)cc1 | – | inactive: 27.5%
93 | Cc1ccc(-c2c(C(=O)NCCc3ccc(Cl)cc3)oc(=O)c3ccccc23)cc1 | inactive | –
94 | Cc1cccc(N2C(=O)CCSC23C(=O)N(Cc2ccc(F)cc2)c2ccccc23)c1 (stereo not given) | – | inactive: -7.42%
95 | COc1ccc(NC(=O)C2=C(C)Nc3nc(SCc4ccccc4)nn3C2c2cc(OC)ccc2OC)cc1 (stereo not given) | inactive | –
